Screen size: about 7,900 compounds; about 400 (5.1%) showed an effect of 50% or more. Some of the results follow.

Chain of Parkinson's disease protein 7 (PARK7/DJ1) (Q99497 whole entry, looked up, the tested form may be a part): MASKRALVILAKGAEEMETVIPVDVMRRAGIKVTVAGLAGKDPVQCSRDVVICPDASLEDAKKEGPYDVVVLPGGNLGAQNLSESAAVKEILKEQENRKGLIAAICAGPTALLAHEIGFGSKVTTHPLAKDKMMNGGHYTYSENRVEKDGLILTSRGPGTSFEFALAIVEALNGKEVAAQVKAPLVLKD

This assay concerns the target Parkinson's disease protein 7 (PARK7/DJ1) (human, UniProt Q99497). Kind of assay: primary screen, percent inhibition; read as competition with a fluorescent probe by fluorescence polarization; higher = more effect of the substance. The conditions noted are these: 100 µM. In outline:
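Fluorescence-polarization probe displacement (JYQ-107, 20 nM final, 2 h) after 2 h preincubation of PARK7 (0.2 μM final) with each fragment at 100 μM final. Read-out ex/em 480/520 nm; remaining activity derived from FP signal loss relative to reference controls.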
`O=C(CCl)Nc1nc(C2CC2)no1`: the Inhibition % was determined as 31%. For `Cc1ccc(Nc2oc(C)nc2C#N)cc1` the value was 7.87%; for `COC(=O)C=C1Nc2cc(C)ccc2OC1=O`, 4.25%; for `O=C(Nc1ccc(CCO)cc1)c1cccnc1S`, 7.16%. For `Cc1ccc(C=C(C#N)C(=O)NC(C)C)s1` the value was 3.92%; for `CN(C(=O)c1ccc(B2OC(C)(C)C(C)(C)O2)c(Cl)c1)c1ccccc1`, 4.96%. Take `C=CC(=O)N1CCC(C(F)(F)F)C2(CCC2)C1` (stereo not shown): the Inhibition % turned out to be 8.28%. In the case of `CCc1cc(C(=O)NNC(=O)CCl)sc1C`, the Inhibition % is 9.95%. On to `C=CC(=O)NCc1nnc(-c2ccc(Cl)cc2)o1`, for which the Inhibition % is listed as -0.196%. Consider `CNC1CCCN(C(=O)C=Cc2ccc(Cl)cc2)C1` (stereo not shown), for which the Inhibition % was 11.8%. For `CSC1(C(=O)NC2CN(c3ccccc3)C2=O)CC1` (stereo not shown) the value was 2.01%. For `Cc1cccc(N(Cc2ccccc2)C(=O)CCl)c1` the value was 9.42%. For `CCc1cccc(N(C#N)CC(=O)NC2CCOCC2)c1` the value was 2.19%. For `Cl.O=C(CCl)c1c[nH]c2ncccc12`, the Inhibition % was determined as 10.6%. On to `N#Cc1ncn(CC(=O)Nc2cc(Cl)ccc2F)n1`, for which the Inhibition % is 3.72%. As for `C=CC(=O)N1CCOC(c2cccc(Cl)c2)C1` (stereo not shown), the Inhibition % is given as 9.66%. For `CC1(C)OB(c2cnc(N3CCC(=O)CC3)nc2)OC1(C)C` the value was 6.29%; for `C=CC(=O)N1CCC(Cc2ccnn2C)CC1`, 8.86%. For `CCc1ccccc1N1C(=O)CN=C1S` the value was 4.97%; for `CC(C)(C)C(CO)Nc1ccc(C(F)(F)F)c(C#N)n1` (stereo not shown), 12.1%. In the case of `Cc1ccc(N(C)C(=O)n2nc(C)cc2C)cc1`, the Inhibition % came out at 2.51%. For `O=C(CCCl)Nc1cccc(C(F)(F)F)c1` the value was 5.59%; for `O=C(CCC1CCCC1)NC1C=CS(=O)(=O)C1` (stereo not shown), 6.99%. For `CC(N)C1CCCCN1C(=O)C=Cc1cncc(F)c1` (stereo not shown) the value was -0.26%. Turning to `O=C(CCl)Nc1ccc(F)cc1Cl`, the Inhibition % turned out to be 13.8%. For `Cn1c(C#N)c2ccccn2c1=O` the value was 6.65%; for `N#CC(=Cc1ccc(Cl)cc1)C(=O)Nc1ccncc1`, 2.9%; for `Cc1nc2ccccc2nc1SC1CCOC1=O` (stereo not shown), 70.3%. Consider `C=C(C)Cn1c(C#N)nc(C)c1C`, for which the Inhibition % is recorded as 2.82%.

With `C=CC(=O)Nc1cnn(CC2CCCO2)c1` (stereo not shown), the Inhibition % amounted to 9.71%. For `Cc1nc(-c2ccc(C)c(NC(=O)CCl)c2)n[nH]1` the value was 4.91%; for `O=C(O)c1cccc(S(=O)(=O)F)c1`, 95.1%.

`O=C(CCl)NNC(=O)C1(c2ccc(Cl)cc2)CC1`: the Inhibition % came to 10.4%. For `N#Cc1ncn(CC(=O)NC2CCCc3ccccc32)n1` (stereo not shown), the Inhibition % was found to be 4.52%.

`O=C1SCCN1CC(=O)N1CCCc2c(F)cc(F)cc21`: the Inhibition % amounted to 13.6%.

Consider `C=CC(=O)N1CCC(c2noc(C3CC3)n2)CC1`, for which the Inhibition % came out at 2.86%. For `Cc1ncc(C=CC(=O)N2CCC(CN)C2)s1` (stereo not shown) the value was 12.9%.

As for `C=CC(=O)N1CCN(Cc2cc(C)no2)CC1`, the Inhibition % is given as 4.28%. As for `Cn1cc(CCCNc2ccc(Cl)c(C#N)n2)cn1`, the Inhibition % is listed as 21.8%. For `Cc1nn(C)c(C)c1C=CC(=O)N1CCC(C)CC1` the value was 14.3%; for `Cc1cc(C(=O)CCl)c(F)cc1F`, 5.96%; for `C=CC(=O)N1CCN(C2CC2)C(C(N)=O)C1` (stereo not shown), 4.01%. For `COc1cc(OC)c(C(=O)CCl)c(OC)c1` the value was 5.2%; for `C=CC(=O)N1Cc2ccccc2CC1CC` (stereo not shown), -4.38%. `CC1CC1c1ccc(C=CC(=O)N2CCC(O)CC2)o1` (stereo not shown): the Inhibition % is 2.77%. On to `CN1CCN(c2oc(-c3ccc(F)cc3)nc2C#N)CC1`, for which the Inhibition % came to 5.44%. On to `OC1(CC2CO2)CCCC1` (stereo not shown), for which the Inhibition % amounted to 15.9%.

In the case of `CC1(C)C(=O)NC1C1CC1` (stereo not shown), the Inhibition % was -4.69%. On to `C=CC(=O)N1CCCc2cc(S(C)(=O)=O)ccc21`, for which the Inhibition % is listed as -0.0694%. Take `COc1ccc(C(C)C)cc1S(=O)(=O)n1cnc(C)c1`: the Inhibition % was found to be 8.19%. For `CS(=O)(=O)OCC1(C#N)CCC1` the value was -0.83%; for `Cc1ccc(C=CC(=O)N2CCOCC2C(=O)O)o1` (stereo not shown), 10.4%; for `CC(NC(=O)CCl)c1ccccc1Br` (stereo not shown), 5.44%. Consider `C=CC(=O)N1CCN(Cc2cc3ccccc3o2)CC1`, for which the Inhibition % came out at 10.5%. For `CCOc1cc(S(=O)(=O)n2cccn2)ccc1Cl` the value was -0.661%. For `C=CC(=O)N1CCCC1c1cccs1` (stereo not shown) the value was 4.68%. Take `CCCNC(=O)C(C#N)=Cc1nc(C)c(C)[nH]1`: the Inhibition % came out at 13.8%. On to `C=CC(=O)Nc1cnn2ccccc12`, for which the Inhibition % is listed as 97%. With `O=C(O)C1Cc2ccccc2CN1C(=O)CCl` (stereo not shown), the Inhibition % stood at 40.5%. As to `Cc1nc(S)nc(O)c1C`, the Inhibition % was 0.0569%. For `COc1ccc(C(C#N)N2CCN(C(=O)CCl)CC2)cc1` (stereo not shown) the value was 9.52%; for `O=C(CCl)NC1CCCc2ccccc21` (stereo not shown), 4.42%. With `C=CC(=O)N1CC(c2ccc(F)cc2)CC1C` (stereo not shown), the Inhibition % is reported as 6.19%. For the compound `O=C(CCl)N1CCCC2CCCCC21` (stereo not shown), the Inhibition % is 14.1%. For `Cc1noc(C)c1B1OC(C)(C)C(C)(C)O1` the value was 2.59%; for `NC(=O)C1CCCCN1C(=O)CCl` (stereo not shown), 12.3%; for `C=CC(=O)Nc1cc(C2CC2)nn1-c1ncccn1`, 33.8%.

With `Cc1c(C#N)c(S)nc2c1CCC2`, the Inhibition % was determined as 15.1%. For `C=CC(=O)NCc1nc2cc(F)ccc2o1` the value was 3.57%. For `O=C(C=Cc1nccs1)N1CCc2ccccc21` the value was 14.3%; for `C=CC(=O)N1CCC(Cn2nc(C)cc2C)CC1`, 1.11%; for `Fc1cccc(F)c1C1=NOC(CCl)C1` (stereo not shown), 7.37%. Consider `C=CC(=O)N1CCC(N2CCCS2(=O)=O)CC1`, for which the Inhibition % is reported as 8.7%. Regarding `Cc1ccsc1-c1nnc(NC(=O)CCl)o1`, the Inhibition % is given as 10.8%. For `O=C(CCl)c1ccc(O)c(O)c1` the value was 75.1%; for `CC1(C)OB(c2ccc(S(C)(=O)=O)cc2Cl)OC1(C)C`, 4.5%; for `C=CC(=O)N1CCN(CC(F)(F)F)C(=O)C1`, 8.9%.

For the compound `CN(CC1(O)CCCC1)c1ccc(C#N)nc1`, the Inhibition % is recorded as 6.66%. On to `C=CC(=O)NCCn1ccnc1C`, for which the Inhibition % is reported as 19.6%. On to `Cc1oc(-c2ccccc2)nc1CN1C(=O)CCC1=O`, for which the Inhibition % was found to be 1.27%. `CC1(C)OB(c2ccc3c(c2)OCO3)OC1(C)C`: the Inhibition % is reported as 3.89%. Regarding `N#Cc1nccnc1Oc1ccc(N)cc1`, the Inhibition % was 9.92%.

`N#Cc1ncn(CC(=O)Nc2cc(F)cc(F)c2)n1`: the Inhibition % is given as -3.2%.

`C=CC(=O)N1CCC2(CC1)OCCc1ccccc12`: the Inhibition % is given as 3.72%. For `CC1(C)OB(c2ccc(Cl)cc2)OC1(C)C`, the Inhibition % was found to be 4.5%.

`C=CC(=O)NCC1C2Cc3ccccc3C12` (stereo not shown): the Inhibition % is given as 22.4%. For `N#Cc1ccc(N2CCOCC2)cn1` the value was 2.34%; for `Cc1ccc(C(=O)CCl)cc1`, 32.3%. In the case of `CCCOc1ccc(S(=O)(=O)n2cccn2)cc1C`, the Inhibition % amounted to 2.9%. For `Cn1cc(C=C(C#N)C(=O)NCCc2ccccc2)cn1` the value was 9.69%; for `Cc1ccc(NC(=O)CN(C)C(=O)CCl)cc1`, 96.5%. As for `O=C(O)C1CCN(C(=O)C=Cc2ccccc2F)CC1`, the Inhibition % amounted to 7.3%. For `C1CCCC2(CC1)CO2` the value was 5.37%; for `O=C1OCCC1Sc1nnc(-c2ccncc2)o1` (stereo not shown), 6.02%. Consider `COCc1ccc(SC(=O)N(C)C)cc1`, for which the Inhibition % is 7.64%. As for `O=C(Oc1ccc2c(c1)OCO2)N1CCOCC1`, the Inhibition % was 4.01%. In the case of `COc1ccc(OCCS)cc1`, the Inhibition % came to 3.61%.

On to `N#Cc1cc(N2CC(O)CC2c2ccc(F)cc2)ccn1` (stereo not shown), for which the Inhibition % is reported as 5.08%. For `O=c1oc(-c2ccc(F)cc2)nn1CN1CCOCC1` the value was 5.48%. For `C=CC(=O)N1CCc2cc(OC)c(Cl)cc2C1` the value was 1.32%; for `CC(C)NC(=O)C(C#N)=Cc1cccs1`, 4.15%; for `Cn1ncc(C(=O)CCl)n1`, 95.3%. For `C=CC(=O)NCC1CCCc2cc(OC)ccc21` (stereo not shown) the value was 3.52%; for `Cc1cc(OC(F)F)ccc1B1OC(C)(C)C(C)(C)O1`, 3.76%.

In the case of `C=CC(=O)N1CCN(c2ccc(Cl)cn2)CC1`, the Inhibition % is given as 6.88%. Consider `O=C(NCc1ccccn1)N1CCCCC1C1OCCO1` (stereo not shown), for which the Inhibition % came out at 10.7%. For `CC(C)NC(=O)N1CCCC(C2OCCO2)C1` (stereo not shown) the value was 3.8%; for `Cn1cc(NC(=O)CN2CCSC2=O)cn1`, 71.6%. Consider `CC(C)N1C2CCC1CN(c1ccc(C#N)nc1)CC2` (stereo not shown), for which the Inhibition % is recorded as 3.5%. For `COc1ccc(NS(=O)(=O)c2ccc(S(=O)(=O)F)cc2)cn1` the value was 100%; for `O=C1OCCC1N1CC=C(c2c[nH]c3ccccc23)CC1` (stereo not shown), 4.4%; for `N#Cc1ccc(C2OCCO2)o1`, 3.58%. For `Cn1cc(B2OC(C)(C)C(C)(C)O2)c(C2CC2)n1` the value was 7.49%. For the compound `O=C1CCC(=O)N1CCSc1cccc(Cl)c1`, the Inhibition % is 8.82%.

Regarding `CC(C)(C)N(Cc1ccccc1)C(=O)CCl`, the Inhibition % came to 9.42%. For the compound `c1cc(OCC2CO2)c2cc[nH]c2c1` (stereo not shown), the Inhibition % is listed as -2.42%. For `O=S1(=O)CCCN1c1cccc(NCc2ccccc2B(O)O)c1` the value was 9.49%; for `O=C(O)C1CCCN1C(=O)C=Cc1cc2ccccc2o1` (stereo not shown), 15%; for `C=CC(=O)N1CC(C)(C)C1c1nccn1-c1cccc(F)c1` (stereo not shown), 9.73%. For `C=CC(=O)N1CCOC(C#N)C1` (stereo not shown) the value was 7.14%; for `Cc1cc(C)n(-c2cccc(B(O)O)c2)n1`, -1.1%; for `O=c1oc(-c2ccccc2)nn1CN1CCCSCC1`, 33.1%. For `C=CC(=O)N1CCCc2c(OCC(N)=O)cccc21` the value was 32%; for `C=CC(=O)N1CCSC(C(C)C)C1` (stereo not shown), 7.2%.

These data come from publication PMC9574860, “Chemical Toolkit for PARK7: Potent, Selective, and High-Throughput” (Journal of Medicinal Chemistry, 2022).
